Laboratory results from article doi:10.1101/2020.07.27.219618, “Weak catch bonds make strong networks” (bioRxiv, 2020).

Target: Actin filaments (actin purified from rabbit psoas skeletal muscle) (rabbit, UniProt P68135)
Assay: co-sedimentation; G-actin at 6 increasing concentrations co-polymerized with 0.1 μM crosslinker in F-buffer for 2 h at room temperature (legend: 25 °C), spun at 120 000 g; unbound crosslinker in the supernatant quantified by SDS-PAGE; fraction bound fitted against actin concentration
Settings: both partners purified

Ka: 1.56e+07 M⁻¹
B1: Human α-actinin-4 K255E point mutant (natural protein)
chain: not shown
notes: α-actinin-4, human, with the disease-associated point mutation K255E (focal segmental glomerulosclerosis type 1); also called K255E mutant; slip bond crosslinker; source: E. coli, purified (nickel column, gel filtration)
